Laboratory results reported in PubChem BioAssay AID2100 (National Center for Advancing Translational Sciences (NCATS), 2009).
Out of some 300,000 compounds screened, about 1,200 (0.4%) were called active. Inconclusive results, whose numbers are uncertain, are shown with a selection of clear calls. The call rests on the fitted dose curve; in most records, active means well fitted inhibition curve with a large enough effect; inconclusive means small, poorly fitted or top-dose-only effect, or another doubt; inactive means no such curve, though single readings can be large or run the other way. Potencies of inconclusive entries are doubtful fits and often do not repeat.

Target: Lysosomal alpha-glucosidase (Homo sapiens) (UniProt P10253)
Assay: qHTS Assay for Inhibitors and Activators of Human alpha-Glucosidase Cleavage of Glycogen;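 on activity change, negative = inhibition: 0% = full enzyme reaction and -100% = no-enzyme basal signal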
Details: recombinant GAA, glycogen substrate, Amplex Red glucose oxidase fluorescence; activity change, negative = inhibition: at 76.4 µM (top of the series) unless noted
In short: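 qHTS, 1536-well; enzyme 4 nM final; cpd up to 77 uM; substrate bovine liver glycogen 30 ug; 50 mM citrate/phosphate pH 5.0, 0.01% Tween-20; 37 C, 40 min; Amplex Red detection 45 min RT; Hill fit → AC50.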
Potency means the concentration at half of the fitted maximal effect.

| Structure (SMILES) | Potency | activity change, negative = inhibition |
| --- | --- | --- |
| CCCCc1ccc(NC(=S)NCc2cccc(OC)c2)cc1 | inconclusive: 28.2 µM [inhibitor, partial curve] |  |
| Cc1cc(-c2ccccc2)nc2oc(C(=O)NN)c(N)c12 | inconclusive: 22.4 µM [inhibitor, partial curve] |  |
| Cc1cccc(C)c1NC(=O)CSc1nnc(-c2ccco2)c(-c2ccco2)n1 |  | inactive: 6.3% |
| Cc1noc(C)c1C(=O)NNc1ccc(C(C)C)cc1 | active: 39.8 µM |  |
| CCCCSc1nnc(NC(=O)CCc2ccccc2)s1 |  | inactive: -18.8% |
| COc1cc(/C=C2\NC(=S)N(C)C2=O)ccc1O | active: 10 µM |  |
| CCOC(=O)C(=O)Nc1cccc(C(=O)OCC)c1 |  | inactive: 4.09% |
| CCOC(=O)C1=NN(c2ccccc2)C(=O)C1 | inconclusive: 8.91 µM [inhibitor, full curve] |  |
| CNNC(=S)NC1CC2CC1C1C=CCC21 (stereo unspecified) | inconclusive: 19.8 µM [inhibitor, partial curve] |  |
| CNC(=O)CC1C(=O)N(c2ccc(F)cc2)C(=S)N1NC(=O)c1ccc(Br)cc1 (stereo unspecified) | inconclusive: 50.1 µM [inhibitor, single point] |  |
| COc1cc(C(c2c(C)[nH][nH]c2=O)c2c(C)[nH][nH]c2=O)ccc1OC(=O)c1ccccc1OC | inconclusive: 31.6 µM [inhibitor, partial curve] |  |
| COc1cccc2c(N/N=C/c3ccco3)cc(C)nc12 | active: 8.84 µM |  |
| CCc1cc(/C(Cc2ccc3ccccc3n2)=N\O)c(O)cc1O | inconclusive: 17.6 µM [inhibitor, partial curve] |  |
| COc1ccc(-c2nc(C#N)c(NCCCN3CCOCC3)o2)cc1 | inconclusive: 2.22 µM [inhibitor, full curve] |  |
| COc1ccc(C(c2oc(CO)cc(=O)c2O)c2oc(CO)cc(=O)c2O)cc1 | inconclusive: 7.94 µM [inhibitor, partial curve] |  |
| Cc1ccn2c(NC3CCCC3)c(-c3ccncc3)nc2c1 | active: 28.2 µM |  |
| Fc1ccccc1NC(=S)Nc1cccc2cnccc12 |  | inactive: 4.78% |
| c1ccc(NNC2=NCCCCC2)cc1 | inconclusive: 3.98 µM [inhibitor, full curve] |  |
| O=c1[nH]c(CN2CCN(c3ccc(O)cc3)CC2)nc2scc(-c3ccc(Cl)cc3)c12 | inconclusive: 12.6 µM [inhibitor, partial curve] |  |
| O=C(Cn1nc2ccccc2n1)N/N=C/c1cc(Cl)cc([N+](=O)[O-])c1O |  | inconclusive: 35.4% [activator] |
| O=[N+]([O-])c1ccc(NNC(=S)Nc2ccc(F)cc2)cc1 | inconclusive: 31.6 µM [inhibitor, single point] |  |
| C/C(=N\NC(=S)NCc1ccccc1)c1ccc2ccccc2c1OC(F)F | inconclusive: 31.4 µM [inhibitor, partial curve] |  |
| COc1cc(-n2c(=O)c3ccccc3n(Cc3cccc(Cl)c3)c2=O)cc(OC)c1OC |  | inactive: 0.781% [at 76.3 µM] |
| CC(=O)Nc1ccc(S(=O)(=O)Nc2nnc(CC(C)(C)C)s2)cc1 | inconclusive: 12.6 µM [inhibitor, partial curve] |  |

| Structure (SMILES) | Potency | activity change, negative = inhibition |
| --- | --- | --- |
| COc1cccc(CNc2ccc3[nH]c(=O)[nH]c3c2)c1OCc1ccccc1F | active: 28.2 µM |  |
| Cc1ccc2oc(=O)c(/C=C(\O)CC(C)C)nc2c1 | inconclusive: 28.2 µM [inhibitor, single point] |  |
| COc1ccc(O)c(C(=O)C2c3ccccc3C(=O)N2c2ccc(C)cc2)c1 (stereo unspecified) | inconclusive: 20 µM [inhibitor, partial curve] |  |
| O=C(Nc1ccc(F)c(F)c1)c1cnc(-c2ccccc2)nc1-c1ccccc1 |  | inconclusive: 42.1% [activator] |
| COc1ccc2c(c1)-c1c(ssc1=S)C(C)(C)N2 | inconclusive: 50.1 µM [inhibitor, single point] |  |
| COc1cc(/C=C/C(=O)C2C(=O)C=C(C)OC2=O)cc(OC)c1O (stereo unspecified) | inconclusive: 28.2 µM [inhibitor, partial curve] |  |
| COc1ccc(-c2cc(=O)c3c(O)cc(O[C@@H]4O[C@H](CO[C@@H]5O[C@@H](C)[C@H](O)[C@@H](O)[C@H]5O)[C@@H](O)[C@H](O)[C@H]4O)cc3o2)cc1O |  | inactive: 9.26% [at 76.3 µM] |
| COC1=C(Nc2ccccc2)C(=O)c2ccccc2C1=O |  | inactive: -7.96% |
| CCOC(=O)c1ccc2ncc(C(=O)OCC)c(Nc3ccc(N4CCOCC4)cc3)c2c1 | inconclusive: 11.2 µM [inhibitor, single point] |  |
| Cc1ccccc1C(=O)N1CCC(C(=O)Nc2nccs2)CC1 | inconclusive: 19.8 µM [activator, partial curve, poor fit] |  |
| Cc1ccc(S(=O)(=O)Oc2ccccc2/C=N/Nc2ccc(C(=O)O)cc2)cc1 | inconclusive: 35.5 µM [inhibitor, single point] |  |
| Cc1ccccc1CSc1nc2[nH]ncc2c(=O)[nH]1 | inconclusive: 12.6 µM [activator, single point] |  |
| Cc1ccc(NC(=S)NCc2ccc3[nH]c4c(c3c2)CCCC4)cc1 | inconclusive: 5.62 µM [inhibitor, full curve] |  |
| COc1cc(/C=N/Nc2ccc(F)cc2F)cc(OC)c1OC | inconclusive: 9.92 µM [inhibitor, single point] |  |
| Cc1ccc(-c2nc3cccc(C)n3c2Nc2ccc3c(c2)OCCO3)cc1 | inconclusive: 3.98 µM [inhibitor, full curve] |  |
| CCc1nn(CC(=O)NCc2ccccc2)c(=O)c2cccn12 |  | inactive: 14.7% [at 76.3 µM] |
| Cc1cc(C)n2nc(CNS(=O)(=O)c3cccc(Cl)c3)nc2n1 |  | inactive: 17.2% [at 76.3 µM] |
| CC1(C)CC(=O)C2=C(C1)N(Cc1cccnc1)C(=O)C2(NC(=O)c1ccc(F)cc1)C(F)(F)F (stereo unspecified) | inconclusive: 49.7 µM [activator, partial curve, poor fit] |  |
| CC1(C)CC(=O)C=C(NNC(=O)c2ccccc2O)C1 | active: 44.7 µM |  |
| Oc1cccc2c(NC(=S)Nc3ccc(OC(F)F)cc3)cccc12 |  | inactive: -5.81% |
| CSCCCNC(=O)c1ccccc1OC1CCN(S(C)(=O)=O)CC1 |  | inactive: 1.02% |
| O=C1NC(=O)/C(=C\c2ccc(Oc3ccc([N+](=O)[O-])cn3)cc2)S1 | inconclusive: 6.31 µM [activator, single point] |  |
| COC(=O)c1ccc2nc(C)cc(Nc3ccc(N(C)C)cc3)c2c1 | inconclusive: 5.62 µM [inhibitor, partial curve] |  |
| Cc1ccc2nc(-c3ccsc3)c(NC3CCCC3)n2c1 | inconclusive: 50.1 µM [inhibitor, single point] |  |

| Structure (SMILES) | Potency | activity change, negative = inhibition |
| --- | --- | --- |
| O=C1C(Cl)=C(Nc2ccccc2)C(=O)c2ccccc21 |  | inactive: 7.55% |
| Cc1[nH]c2ccccc2c1/C=N/Nc1nc(Nc2ccccc2)nc(N2CCOCC2)n1 | inconclusive: 31.4 µM [inhibitor, partial curve] |  |
| Cc1nn(C)c(C)c1S(=O)(=O)N(CC(=O)Nc1ccc(F)cc1F)c1ccc(C(C)C)cc1 |  | inactive: -7.21% [at 76.3 µM] |
| CN1CCN(CCCn2cnc3c(=O)oc4ccccc4c32)CC1 |  | inactive: 0.394% |
| CC1=NN(C(=O)c2ccc(Br)cc2)C(O)(c2ccccc2)C1 (stereo unspecified) | inconclusive: 35.5 µM [inhibitor, partial curve] |  |
| CCCCn1c(N)c(NCc2ccccc2)c(=O)[nH]c1=O | inconclusive: 39.8 µM [activator, single point] |  |
| COc1ccc2c(c1)n([O-])c1c([n+]2=O)CCC1 |  | inactive: 1.16% |
| COc1cc(S(=O)(=O)NC2CCCCC2)ccc1F | inconclusive: 3.95 µM [inhibitor, single point] |  |
| CCOC(=O)CSC1=C(C#N)C(=O)NC(c2ccc(OC)c(OC)c2)S1 (stereo unspecified) | inconclusive: 39.5 µM [inhibitor, single point] |  |
| Cc1ccc(OC(=S)Nc2ccc(O)cc2)cc1 | inconclusive: 50.1 µM [inhibitor, single point] |  |
| O=C1CSC2=NCN(c3ccc4c(c3)OCO4)CN12 | inconclusive: 28 µM [inhibitor, partial curve] |  |
| CC(C)c1ccc(O)c(NC(=S)NC(=O)c2cccnc2)c1 | inconclusive: 15.8 µM [inhibitor, partial curve] |  |
| Cc1ccc(-c2cc(NC(=O)c3ccccc3Cl)on2)cc1 |  | inactive: 17.3% [at 76.3 µM] |
| CCN(CC)S(=O)(=O)c1ccc(N2CCN(c3ccccc3O)CC2)nc1 | inconclusive: 6.31 µM [inhibitor, partial curve] |  |
| Cc1[nH]n(-c2ccc(Cl)c(Cl)c2)c(=O)c1CCO | active: 22.4 µM |  |
| CC1(C)CC(=O)C/C(=N\NC(=O)C2C3CCCCC32)C1 (stereo unspecified) | inconclusive: 19.8 µM [inhibitor, partial curve] |  |
| COc1ccc(OCc2ccc(-c3nc(C#N)c(N4CCN(C)CC4)o3)o2)cc1 |  | inactive: -3.57% [at 76.3 µM] |
| Nc1nnc(SCC(=O)c2ccc3ccccc3c2)s1 | inconclusive: 39.5 µM [inhibitor, partial curve, poor fit] |  |
| COCc1cc(C)nc2sc3c(c12)NC(c1ccc(O)cc1)N(c1ccc(OC)cc1)C3=O (stereo unspecified) | inconclusive: 10 µM [inhibitor, partial curve] |  |
| Cc1ccc2nc(-c3ccc(O)cc3)c(Nc3ccc4c(c3)OCO4)n2c1 | inconclusive: 14.1 µM [inhibitor, partial curve] |  |
| CCc1ccc(NC(=O)C2CCN(C(=O)N3CC(CC)Oc4ccccc43)CC2)cc1 (stereo unspecified) |  | inactive: -21.1% [at 76.3 µM] |
| Cc1nc2ncnn2c(Nc2ccc3c(c2)OCO3)c1Cc1ccccc1 | inconclusive: 22.4 µM [inhibitor, partial curve] |  |
| CCOc1cc(/C=N/NC(=O)CN(CCc2ccccc2)S(=O)(=O)c2ccc(NC(C)=O)cc2)ccc1O | inconclusive: 39.8 µM [inhibitor, partial curve] |  |
